# Results reported in PubChem BioAssay AID360 (National Center for Advancing Translational Sciences (NCATS), 2006).
# Screen size: about 48,000 compounds; about 550 (1.1%) were called active. Not shown: some 4% with an inconclusive outcome. Cut-off read from the data, not from the text of the source: active = potency below about 15 µM; inconclusive = mostly about 16 µM to 33 µM; inactive = weaker than that. Some of the results follow.
# Target: Lysosomal acid glucosylceramidase (Homo sapiens) (UniProt P04062)
# UniProt P04062, sequence (P04062 whole entry, looked up): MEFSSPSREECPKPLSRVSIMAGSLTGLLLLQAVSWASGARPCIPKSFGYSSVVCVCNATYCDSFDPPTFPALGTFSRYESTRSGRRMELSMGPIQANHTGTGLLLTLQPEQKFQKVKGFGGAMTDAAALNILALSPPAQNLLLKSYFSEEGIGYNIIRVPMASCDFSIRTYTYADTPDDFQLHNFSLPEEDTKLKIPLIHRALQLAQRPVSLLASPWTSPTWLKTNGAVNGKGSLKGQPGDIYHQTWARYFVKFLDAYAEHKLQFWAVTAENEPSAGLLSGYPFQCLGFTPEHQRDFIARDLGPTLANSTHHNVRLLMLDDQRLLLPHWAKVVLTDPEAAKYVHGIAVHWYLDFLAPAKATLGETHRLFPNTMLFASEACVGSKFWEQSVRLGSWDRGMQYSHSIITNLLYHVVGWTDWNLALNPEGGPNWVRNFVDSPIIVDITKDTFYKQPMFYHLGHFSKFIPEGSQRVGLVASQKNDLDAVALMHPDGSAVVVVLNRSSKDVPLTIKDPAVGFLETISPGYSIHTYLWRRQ
# Experiment: Glucocerebrosidase;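 note: the screen sought inhibitors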
# Details: purified enzyme, resorufin glucoside fluorescence (screen aimed at inhibitors), 20 min
# Summary of the method: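 Wild-type enzyme at 0.2 nM final in 50mM citric acid/KH2PO4, 10mM sodium taurocholate, 0.01% tween-20, pH 5.9, with resorufin beta-D-glucopyranoside at 30 uM final. Compounds titrated, 20 min at RT, red fluorescence read; AC50 from titration.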
# Potency is the fitted concentration of half-maximal effect.
row,Structure (SMILES),Potency
1,O=C(CN1C(=O)CSc2ccccc21)NCCC1=CCCCC1,inactive: > 76.9 µM
2,Cc1ccc(-c2nc3cccnc3s2)cc1NC(=O)c1ccco1,inactive: > 76.9 µM
3,CC1=Nn2c(nnc2C2CCCCC2)SC1,inactive: > 76.9 µM
4,CC1CCN(S(=O)(=O)c2ccc(S(=O)(=O)NCC3COCCO3)cc2)CC1 (stereo unspecified),inactive: > 76.9 µM
5,CCn1c(SCc2nc3ccccc3nc2C)nnc1-c1cccs1,inactive: > 76.9 µM
6,COc1cc(C2Nc3cccc4cccc(c34)N2)cc(OC)c1O,inactive: > 76.9 µM
7,O=C(Nc1ccccc1N1CCN(C(=O)c2ccc(Cl)cc2)CC1)c1cc2ccccc2o1,inactive: > 76.9 µM
8,CCc1ccc2[nH]c(=O)c(CN(CCN(C)C)C(=O)Nc3ccccc3)cc2c1,inactive: > 76.9 µM
9,Cc1cc(Cl)c(S(=O)(=O)Nc2ccccn2)cc1OCC(N)=O,inactive: > 76.9 µM
10,Cn1c2c(c(=O)n(C)c1=O)C(c1ccc(O)cc1)Nc1ccccc1O2 (stereo unspecified),inactive: > 76.9 µM
11,O=C(NCC1COc2ccccc2O1)c1ccc(Cl)cc1 (stereo unspecified),inactive: > 76.9 µM
12,O=S1(=O)N=C(N2CCc3ccccc3C2)c2ccccc21,inactive: > 76.9 µM
13,COc1cccc(N(C(=O)c2ccco2)C(C(=O)NC2CCCC2)c2cccnc2)c1 (stereo unspecified),inactive: > 76.9 µM
14,Cc1ccc(C(=O)Nc2nc3ccccc3c(=O)s2)cc1,inactive: > 76.9 µM
15,O=C(CSc1nnnn1-c1ccc2c(c1)OCCO2)OC1CCCCC1,inactive: > 76.9 µM
16,Cc1nnc(SCC(=O)N2CCN(S(=O)(=O)c3ccccc3)CC2)[nH]c1=O,inactive: > 76.9 µM
17,Cc1cccc(NC(=O)CSc2nnc(-c3ccc(S(=O)(=O)N4CCCC4)cc3)o2)c1,inactive: > 76.9 µM
18,Cc1[nH]n2c(=O)cc(C(C)C)nc2c1-c1ccccc1,inactive: > 76.9 µM
19,COc1ccccc1Cn1c(=S)[nH]c2cc(C(=O)N3CCN(C)CC3)ccc2c1=O,inactive: > 76.9 µM
20,COC(=O)c1c(NS(=O)(=O)c2cccs2)sc2c1CCCC2,inactive: > 76.9 µM
21,c1ccn2c(c1)nc1c2nc2ccccn21,inactive: > 76.9 µM
22,Fc1ccccc1Cn1nnc2c(-n3ccnc3)ncnc21,inactive: > 76.9 µM
23,CC(=O)NC(Cc1c[nH]c2ccccc12)C(=O)OCC(=O)Nc1cc(C)on1 (stereo unspecified),inactive: > 76.9 µM

row,Structure (SMILES),Potency
1,Cc1ccc(C(=O)O)c(C(=O)Nc2nc(C)cs2)c1,inactive: > 76.9 µM
2,COc1cccc(OC)c1C(=O)NCCN1CCN(C(=O)c2c(OC)cccc2OC)CC1,inactive: > 76.9 µM
3,COC(=O)c1cc(NC(=O)C2COc3ccccc3O2)cc(C(=O)OC)c1 (stereo unspecified),inactive: > 76.9 µM
4,CN1CCCCCC1=NC1=C(C#N)CCCC1,inactive: > 76.9 µM
5,CC(=O)Nc1cccc(N(C)S(C)(=O)=O)c1,inactive: > 76.9 µM
6,COc1ccc(-n2nnc3c(=O)n(CC(=O)N4CCCC4)cnc32)cc1,inactive: > 76.9 µM
7,Cc1ccc(-c2nc(N)n(C(=O)c3cccnc3)n2)cc1,inactive: > 76.9 µM
8,CCCCn1c(SCC(=O)NCc2ccco2)nc2ccc(N3CCOCC3)cc2c1=O,inactive: > 76.9 µM
9,O=C(OCC(=O)c1ccccc1Br)c1ccccn1,inactive: > 76.9 µM
10,O=C(CN1CCOCC1)N1CCN(S(=O)(=O)c2ccccc2)C1c1ccccc1 (stereo unspecified),inactive: > 76.9 µM
11,Cc1nn2cc(-c3ccc(Cl)cc3)nc2s1,inactive: > 76.9 µM
12,COc1cc(C(=O)Nc2nc(N)n(-c3ccccc3)n2)cc(OC)c1OC,inactive: > 76.9 µM
13,CC(=O)c1c(C)[nH]c(C(=O)OCCCCN2C(=O)c3ccccc3C2=O)c1C,inactive: > 76.9 µM
14,O=C(NCc1nc2ccccc2[nH]1)c1ccco1,inactive: > 76.9 µM
15,C/C(Cl)=C/Cn1c(SCC(C)C)nc2c1c(=O)[nH]c(=O)n2C,inactive: > 76.9 µM
16,C(=N\c1nc2ccccc2n1CCN1CCCCC1)/c1cccs1,inactive: > 76.9 µM
17,CCOCCCn1c(SCC(=O)NC(C)C)nc2ccccc2c1=O,inactive: > 76.9 µM
18,CCc1ccccc1N(C)C(=O)CCc1nc(-c2ccc(C)cc2)no1,inactive: > 76.9 µM
19,Cc1cc(C(F)(F)F)nn1CC(=O)Nc1cccnc1,inactive: > 76.9 µM
20,CCOC(=O)C1=C(C)NC(=O)C1(NC(=O)c1cccnc1)C(F)(F)F (stereo unspecified),inactive: > 76.9 µM
21,O=c1c2ccccc2nnn1CSc1ncnc2ccccc12,inactive: > 76.9 µM
22,COc1nc(NCC(C)C)nc(Oc2ccc(OCc3ccccc3)nn2)n1,inactive: > 76.9 µM
23,O=C(CCCCCN1C(=O)c2ccccc2C1=O)NCc1ccccn1,inactive: > 76.9 µM

row,Structure (SMILES),Potency
1,S=c1[nH]nc(-c2cccnc2)o1,inactive: > 76.9 µM
2,COCc1nc(-c2cc(Br)ccc2OC)no1,inactive: > 76.9 µM
3,COC(=O)C1CCCN1C(=O)c1cccs1 (stereo unspecified),inactive: > 76.9 µM
4,COc1ccc(CCNC(=O)c2ccc(N3CCCC3=O)cc2)cc1OC,inactive: > 76.9 µM
5,CCOC(=O)c1cccc(NC(=O)Cn2c(CC(=O)NC)nc3ccccc32)c1,inactive: > 76.9 µM
6,Cc1ccc(-n2nc3c(c2NC(=O)c2ccc(S(=O)(=O)N4CCOCC4)cc2)CSC3)c(C)c1,inactive: > 76.9 µM
7,CC(=O)c1ccc(OCCCC(=O)OCC(=O)N2CCN(c3ccccc3)CC2)cc1,inactive: > 76.9 µM
8,COC(=O)c1cc(COC(=O)c2ccc(OC)c(S(=O)(=O)N3CCCC3)c2)oc1C,inactive: > 76.9 µM
9,COC(=O)c1cc(NC(=O)C2COc3ccccc3O2)ccc1Cl (stereo unspecified),inactive: > 76.9 µM
10,Cc1cccn2c(=O)c3cc(C(=O)N4CCN(c5ccccc5)CC4)n(C)c3nc12,inactive: > 76.9 µM
11,COc1cccc(OC)c1-c1nnc(-c2cn(C)c3ccccc23)o1,inactive: > 76.9 µM
12,CCN(CC)C(=O)CN(c1cc(Cl)ccc1OC)S(C)(=O)=O,inactive: > 76.9 µM
13,COc1cccc(NC(=O)CSc2nc(N)cc(N)n2)c1,inactive: > 76.9 µM
14,Cc1oc2cc3c(C(=O)N4CCCCC4)c(C)oc3cc2c1C(=O)N1CCCCC1,inactive: > 76.9 µM
15,COc1ccccc1N1CCN(CC(O)COc2ccc3c(C)cc(=O)oc3c2)CC1 (stereo unspecified),inactive: > 76.9 µM
16,COc1ccc(CCNC(=O)CSc2nnc(-c3ccc(F)cc3)o2)cc1OC,inactive: > 76.9 µM
17,Cc1occc1C(=O)N1CCN(C(c2ccccc2)c2ccccc2)CC1,inactive: > 76.9 µM
18,Fc1ccc(OCc2nn3c(Cn4nnc5ccccc54)nnc3s2)cc1,inactive: > 76.9 µM
19,CCOC(=O)CNC(=O)CSc1nnc(Cn2c(=O)sc3ccccc32)n1-c1ccccc1C,inactive: > 76.9 µM
20,COc1ccc(C2CC(=O)C3=C(C2)Nc2ccccc2N(C(=O)C2CC2)C3c2cccnc2)cc1OC (stereo unspecified),inactive: > 76.9 µM
21,C=CCN(CC(=O)NCc1ccccc1)C(=O)c1csnn1,inactive: > 76.9 µM
22,CCOc1ccc(NC(=O)CN2CCN(S(=O)(=O)c3ccc(Cl)cc3)CC2)cc1,inactive: > 76.9 µM
23,Cc1cc(-c2nnc(SCC(=O)N3C(C)CCCC3C)o2)no1 (stereo unspecified),inactive: > 76.9 µM

row,Structure (SMILES),Potency
1,N#CC1=C(N)OC2=C(C(=O)CCC2)C1c1ccncc1 (stereo unspecified),inactive: > 76.9 µM
2,Cn1c(COc2ccc(Cl)cc2)nc2ccccc2c1=O,inactive: > 76.9 µM
3,CCN(CCCNC(=O)CNC(=O)Cn1cnc2ccccc2c1=O)c1ccccc1,inactive: > 76.9 µM
4,CC1(C)NC(=O)N(CCCCOc2cccc(C(F)(F)F)c2)C1=O,inactive: > 76.9 µM
5,Cc1ccccc1-n1nnnc1SCc1ncc(-c2ccccc2)o1,inactive: > 76.9 µM
6,CCC1CCCCN1C(=O)COC(=O)c1cc2ccccc2cc1O (stereo unspecified),inactive: > 76.9 µM
7,Cc1[nH]nc2ncc(C(=O)c3ccccc3O)cc12,inactive: > 76.9 µM
8,O=C(Oc1ccc(Cl)c2cccnc12)N1CCOCC1,inactive: > 76.9 µM
9,c1nc(N2CCC3(CC2)OCCO3)c2c3c(sc2n1)CCCC3,inactive: > 76.9 µM
10,CCOC(=O)N1CCC2(O)CCCCC2C1c1ccc(F)cc1 (stereo unspecified),inactive: > 76.9 µM
11,Clc1ccc(Cn2ncc3c(N4CCCC4)ncnc32)cc1,inactive: > 76.9 µM
12,O=c1cc(CO)oc(C(Nc2ccccn2)c2ccc(C(F)(F)F)cc2)c1O (stereo unspecified),inactive: > 76.9 µM
13,COC(=O)CSc1nc2ccccc2nc1SCC(=O)OC,inactive: > 76.9 µM
14,Cc1cc(C)c(-c2cc(C(F)(F)F)no2)c(=O)[nH]1,inactive: > 76.9 µM
15,CCN(CC)CCn1c(NCc2ccc(OC)cc2)nc2ccccc21,inactive: > 76.9 µM
16,CCc1nnc(NC(=O)c2ccc(S(=O)(=O)N(CC)Cc3ccccc3)cc2)o1,active: 13.5 µM
17,O=C(O)C1C2C=CC(O2)C1C(=O)Nc1ccc(S(=O)(=O)N2CCc3ccccc32)cc1 (stereo unspecified),inactive: > 76.9 µM
18,CCCCCCn1c(=O)c(-c2nc3ccccc3c(=O)[nH]2)c(O)c2ccccc21,inactive: > 76.9 µM
19,Cc1ccc(C)c(OCCCN2CCCC2)c1,inactive: > 15.4 µM
20,COc1ccc(-c2ccc(-c3noc(-c4ccccc4)n3)c(OC)n2)cc1,active: 4.95 µM
21,CSc1nc(SC)c2c3c(oc2n1)COC(C)(C)C3,inactive: > 76.9 µM
22,O=C(Nc1cc(C(F)(F)F)ccc1N1CCOCC1)c1cccnc1,inactive: > 76.9 µM
